Measurements from PubChem BioAssay AID504832 (National Center for Advancing Translational Sciences (NCATS), 2011).
The campaign covered roughly 310,000 compounds. About 18,000 (5.8%) were called active. This list was built around the results that the source calls inconclusive (neither active nor inactive); the mix of calls is not that of the screen. Calls come from the whole dose curve; as a rule, active = well fitted inhibition curve with a large enough effect; inconclusive = small, poorly fitted or top-dose-only effect, or another doubt; inactive = no such curve, though single readings can be large or run the other way. Potencies of inconclusive entries are left out as doubtful fits.
Potency is the fitted concentration of half-maximal effect; tags give direction and shape of the fitted curve.

Test: Primary qHTS for delayed death inhibitors of the malarial parasite plastid, 48 hour incubation
Conditions: P. falciparum luciferase growth in erythrocytes; series mostly up to 28.7 µM
Outline: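 Read-out is firefly luciferase luminescence from an integrated reporter in P. falciparum, so falling signal marks reduced parasite growth. Infected erythrocytes were at 2% hematocrit and 0.1% parasitemia (final) in Albumax-supplemented RPMI 1640.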
For `COCCCn1c(-c2ccc(OC)cc2)nc2c1c(=O)[nH]c(=O)n2Cc1ccccc1`, the Potency was inconclusive [inhibitor, partial curve, poor fit].
For `COc1cccc2[nH]c3c(N4CCc5ccccc5C4)ncnc3c12`, the Potency was inconclusive [inhibitor, partial curve].
With `Cc1sc2ncnc(N3CCC(C(=O)Nc4ccc(F)cc4Cl)CC3)c2c1C` the Potency was active: 11.7 µM.
For `COc1ccccc1C1C=C(c2ccc(C)cc2)Nc2nnnn21` (stereo not drawn), the Potency was “inactive”.
For `CCCCN(C)C(=O)Cc1c(OC)ccc2cc(Br)ccc12`, the Potency was inconclusive [inhibitor, partial curve, poor fit].
For `CCc1ccc(-n2c(C)nc3cc(C(=O)NCc4cccnc4)ccc32)cc1`, the Potency was inconclusive [inhibitor, single point].
With `CN(C)CCNC(=O)c1c(CSc2ccccc2)noc1C(=O)NCc1ccccc1` the Potency was inconclusive [inhibitor, single point].
In the case of `CN(C)S(=O)(=O)c1cccc(NC(=O)CSc2ncnc3ccccc23)c1`, the Potency is reported as inconclusive [inhibitor, full curve, poor fit].
For `Cn1c(COc2ccc(Cl)cc2)nnc1SCC(=O)NC1CCCC1`, the Potency was “inactive”.
For `Cn1c(SCC(=O)NNC(=O)c2ccccc2O)nnc1-c1ccccc1`, the Potency was “inactive”.
In the case of `COCCN(Cc1ccccc1)C(=O)c1cccc(S(=O)(=O)N(C)c2c(C)n(C)n(-c3ccccc3)c2=O)c1`, the Potency is reported as inconclusive [inhibitor, single point].
For `COc1ccc(CNC(=O)c2ccc(CN3CCOCC3)cc2)cc1`, the Potency was “inactive”.
In the case of `COc1ccc(C(=O)C(CN2CCCC2)c2ccccc2)cc1` (stereo not drawn), the Potency is reported as active: 13.1 µM.
In the case of `CN(C(=O)CS(=O)(=O)c1cn(CC(=O)N2CCCCC2)c2ccccc12)c1ccccc1`, the Potency is reported as inconclusive [inhibitor, single point].
With `CCOCCn1c(=O)c2c(nc3n2CC(C)CN3Cc2ccccc2)n(C)c1=O` (stereo not drawn) the Potency was inconclusive [inhibitor, partial curve, poor fit].
With `COc1ccc(/C=C2\CCC/C(=C\c3ccc(OC)c(OC)c3OC)C2=O)c(OC)c1OC` the Potency was inconclusive [inhibitor, partial curve, poor fit].
In the case of `COc1ccccc1/C=C\C=N\n1c(-c2ccc(Cl)cc2Cl)n[nH]c1=S`, the Potency is reported as “inactive”.
For `COc1ccc(OC)c(N(CC(=O)N2CCOCC2)S(C)(=O)=O)c1`, the Potency was “inactive”.
For `CCc1cc2c3c([nH]c2cc1S(=O)(=O)N1CCC2(CC1)OCCO2)CCCC3=O`, the Potency was inconclusive [inhibitor, full curve, poor fit].
For `COc1ccc(NC(=O)c2ccc(S(=O)(=O)N3CCCC3)cc2)cc1OC`, the Potency was inconclusive [inhibitor, single point].
In the case of `Cc1cc(C)c(OCC(=O)OCC(=O)NCCC2=CCCCC2)c(C)c1`, the Potency is reported as “inactive”.
In the case of `CCCN1CCN(CCCNC(=O)Cn2nc(C)n3c(cc4cc(F)ccc43)c2=O)CC1`, the Potency is reported as “inactive”.
In the case of `COc1ccc(-c2csc(N(CCCN3CCOCC3)C(=O)c3ccco3)n2)cc1`, the Potency is reported as inconclusive [inhibitor, single point].
For `O=C(CSc1cc(Cl)ccc1Cl)NCC1CCCO1` (stereo not drawn), the Potency was “inactive”.
With `COc1ccc(OC)c(C2C(C(C)=O)=C(O)C(=O)N2CCc2ccc(OC)c(OC)c2)c1` (stereo not drawn) the Potency was inconclusive [inhibitor, single point].
For `COc1ccccc1N1CCN(C(=O)CSc2nc3ccccc3c(=O)n2CC2CCCO2)CC1` (stereo not drawn), the Potency was inconclusive [inhibitor, partial curve, poor fit].
In the case of `C=CCn1c(=O)[nH]c2cc(C(=O)N3CCN(c4cccc(Cl)c4)CC3)ccc2c1=O`, the Potency is reported as inconclusive [inhibitor, single point].
For `CCc1cc(C(=O)N2CCN(C(=O)c3ccco3)CC2)sc1C`, the Potency was inconclusive [inhibitor, single point].
For `COCCN(C(=O)COC(=O)c1ccc2c(c1)OCCO2)c1c(N)n(Cc2ccccc2)c(=O)[nH]c1=O`, the Potency was inconclusive [inhibitor, single point].
With `Cc1ccc(C(=O)N/C(=C/c2ccccc2)C(=O)NC(Cc2ccccc2)C(=O)O)cc1` (stereo not drawn) the Potency was “inactive”.
With `COc1ccc(CNCc2cc3c(C(C)(C)C)nn(-c4ccccc4)c3[nH]c2=O)cc1` the Potency was active: 0.828 µM.
With `COC(=O)CN(c1cc(Cl)ccc1OC)S(=O)(=O)c1ccc(C)cc1` the Potency was active: 2.08 µM.
For `Cc1cc(C(=O)Cn2nc(C(=O)O)c3ccccc3c2=O)c(C)n1CCc1ccc(Cl)cc1`, the Potency was inconclusive [inhibitor, single point].
For `Cc1ccc2cc(CN(CC3CCCO3)C(=S)NCc3ccco3)c(=O)[nH]c2c1` (stereo not drawn), the Potency was inconclusive [inhibitor, partial curve, poor fit].
In the case of `CCCCCCCCCCCCCCCC[N+](C)(C)Cc1ccccc1`, the Potency is reported as active: 1.69 µM.
For `O=C(c1cc(-c2ccccc2)nc2ccccc12)N1CCN(c2ccccc2O)CC1`, the Potency was active: 14.7 µM.
With `CC(C)(C)c1ccc(C(=O)N2CCN(CCNC(=O)C(=O)Nc3ccc(F)cc3)CC2)cc1` the Potency was inconclusive [inhibitor, partial curve, poor fit].
For `NC(=O)C1CCN(C(=O)C2CC(=O)N(Cc3ccccc3)C2)CC1` (stereo not drawn), the Potency was “inactive”.
With `COc1ccc(C(=O)Oc2cccc3cccnc23)cc1S(=O)(=O)N1CCOCC1` the Potency was inconclusive [inhibitor, partial curve].
For `O=C(NCCCN1CCOCC1)c1ccc(-c2ccc(Cl)cc2)o1`, the Potency was inconclusive [inhibitor, single point].
For `COc1cc(OC)cc(C(=O)N[C@H](C(=O)N2CCc3ccccc32)C(C)C)c1`, the Potency was inconclusive [inhibitor, partial curve].
With `CN(c1ccccc1)S(=O)(=O)c1cccc(NC(=O)CSc2nncs2)c1` the Potency was “inactive”.
For `COc1ccc(C(CNS(=O)(=O)c2ccccc2)N2CCN(C)CC2)cc1` (stereo not drawn), the Potency was inconclusive [inhibitor, partial curve, poor fit].
